This sample is rich in variants without activity.
B1: tRNA (parent)
chain: CUCUCGGUAGCCAAGUUGGUUUAAGGCGCAAGACUUUAAUUUAUCACUACGAAAUCUUGAGAUCGGGCGUUCGACUCGCCCCCGGGAGAUUUUUUCCUCGAGCAA

Variants of: B1
Assay: nonsense suppression (GFP-seq) (ratio to wild type); higher = more function; SUP4oc tRNA, yeast GFP reporter sort-seq
Outline: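 To measure nonsense suppression, tRNA variants from a library carrying ~3% random mutations were integrated into the yeast genome alongside RFP and a GFP ochre reporter under galactose control. Growth took place in raffinose/galactose medium supplemented with 80 mg/L adenine, followed by sorting into GFP/RFP bins and Illumina sequencing of each bin (phred ≥30). For each variant with ≥100 reads and ≥30 cells, the bin median GFP/RFP values were weighted by its estimated cell share per bin and referenced to the unmutated parent tRNA.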

| Variant | nonsense suppression |
| --- | --- |
| A30G C77A G78C | ≤ 0.026 |
| A30G A62U U63A C68G G73C | ≤ 0.026 |
| G28C U71C | 0.112 |
| A30C U63A C81A | ≤ 0.026 |
| G28U U55C | ≤ 0.026 |
| G28C U57A | 0.0447 |
| C29A A89C | ≤ 0.026 |
| A30G C80A | ≤ 0.026 |
| A30G G59C A60C | ≤ 0.026 |
| G28C U55C | 0.183 |
| G28C U55G | ≤ 0.026 |
| G28A U57A C75U G86A | ≤ 0.026 |
| C29U A33U U58A C75A | ≤ 0.026 |
| C29G C75U | ≤ 0.026 |
| A30C U57C | ≤ 0.026 |
| A30C A31G | ≤ 0.026 |
| A30G A89U | 0.0271 |
| A30G A89C | 0.0603 |
| A30C G59U | ≤ 0.026 |
| C29G U55A | ≤ 0.026 |
| A30G G66U | ≤ 0.026 |
| A30C C82A | ≤ 0.026 |
| C29A U55C | ≤ 0.026 |
| G28U U76A | ≤ 0.026 |

| Variant | nonsense suppression |
| --- | --- |
| A30C A62U | ≤ 0.026 |
| A30C A62G | ≤ 0.026 |
| C29A G86U | ≤ 0.026 |
| A30C G86A | ≤ 0.026 |
| C29G A60U | ≤ 0.026 |
| C29G C34A U76A G84U | ≤ 0.026 |
| A30C A54U A60G A74U | ≤ 0.026 |
| C29U C83A | ≤ 0.026 |
| C29U C34U | ≤ 0.026 |
| A30G U35G A62G G66C G78A | ≤ 0.026 |
| G28U C64A | ≤ 0.026 |
| A30C G32U G84A | ≤ 0.026 |
| A30G A54C | 0.077 |
| C29G U63C A89C | ≤ 0.026 |
| G28U A30C C34G | ≤ 0.026 |
| C29A G67C | ≤ 0.026 |
| C29G G88U | ≤ 0.026 |
| A30U A62G G65A | ≤ 0.026 |
| G28U A33U C75A | ≤ 0.026 |
| A30G A33G C72A | ≤ 0.026 |
| C29G A31G U70A U71G G84U | ≤ 0.026 |
| C29G U57C U63G G69A | ≤ 0.026 |
| G28U A31U C75G | ≤ 0.026 |
| G28U A31C U35A C72A G73A | ≤ 0.026 |

| Variant | nonsense suppression |
| --- | --- |
| A30G C56G | ≤ 0.026 |
| C29A U63G | ≤ 0.026 |
| A30C A60U U63A G69C | ≤ 0.026 |
| A30G G61C | 0.251 |
| A30G G61A | 0.75 |
| C29U G32C U55A | ≤ 0.026 |
| C29U U57C G61A C64A G65C G67C | ≤ 0.026 |
| C29G G61U | ≤ 0.026 |
| C29G G84U | ≤ 0.026 |
| A30U C64G | ≤ 0.026 |
| C29A C64G | ≤ 0.026 |
| C29G A33U A62G | ≤ 0.026 |
| A30G G69U | ≤ 0.026 |
| G28U C56U | ≤ 0.026 |
| G28C U55G G66U G67U | ≤ 0.026 |
| G28U A60C | 0.669 |
| C29G U76C | ≤ 0.026 |
| A30G | 1.11 |
| A30C | ≤ 0.026 |
| A30U | 0.575 |
| A30G A31G U76C | ≤ 0.026 |
| A30U C72G | ≤ 0.026 |
| A30G C64A | ≤ 0.026 |
| A30C A33G U57A G61C C82A | ≤ 0.026 |

| Variant | nonsense suppression |
| --- | --- |
| A30G G67A | ≤ 0.026 |
| A30U A31U C80A | ≤ 0.026 |
| G28U A62C A89C | ≤ 0.026 |
| G28U U35A | ≤ 0.026 |
| C29A G73C C75U | ≤ 0.026 |
| G28C C34A U55A | ≤ 0.026 |
| C29G A87G | ≤ 0.026 |
| C29A A74G | ≤ 0.026 |
| C29G A33G C82A | ≤ 0.026 |
| C29G A60G C72G | ≤ 0.026 |
| C29A A87U | ≤ 0.026 |
| A30C C68A C79G | ≤ 0.026 |
| C29U A30G U35A G65C | ≤ 0.026 |
| G28C G59A | ≤ 0.026 |
| C29U U76A | 0.224 |
| C29U U76C | 0.772 |
| C29G A33G | ≤ 0.026 |
| C29U G88A | ≤ 0.026 |
| C29G U70C | ≤ 0.026 |
| G28U C34G A60G A87G | ≤ 0.026 |
| C29G C81G C83G | ≤ 0.026 |
| G28U U35G G61U | ≤ 0.026 |
| A30C U70C U76A | ≤ 0.026 |
| G28U A74G G85U | ≤ 0.026 |

| Variant | nonsense suppression |
| --- | --- |
| C29U G67U G78U | ≤ 0.026 |
| C29U A31G A33U G78A C79U | ≤ 0.026 |
| C29U C56G U58G | ≤ 0.026 |
| C29U U35C U55A | ≤ 0.026 |
| G28U C56A C79A | ≤ 0.026 |
| C29G C75G G88U | ≤ 0.026 |
| C29A U58G A89U | ≤ 0.026 |
| C29U U57C A62C | ≤ 0.026 |
| G28C A87C | ≤ 0.026 |
| G28U C34A A87U | ≤ 0.026 |
| C29U U58A G67C C68A G73A | ≤ 0.026 |
| C29U U57A G65U | ≤ 0.026 |
| C29G A54C U71G | ≤ 0.026 |
| A30G C34G A89C | ≤ 0.026 |
| A30C A33G | ≤ 0.026 |
| A30C A33U | ≤ 0.026 |
| G28C G65C A87C | ≤ 0.026 |
| A30U C80A | ≤ 0.026 |
| A30C U35G G73C C77A | ≤ 0.026 |
| C29U A60C G65U C72G | ≤ 0.026 |
| G28C C34U G66A U70G | ≤ 0.026 |
| G28C A30C C68G | ≤ 0.026 |
| A30G U63C | 0.205 |
| G28U A54G | ≤ 0.026 |

| Variant | nonsense suppression |
| --- | --- |
| G28U A54U | ≤ 0.026 |
| A30G C68A A74U | ≤ 0.026 |
| C29U C79U G86A | ≤ 0.026 |
| C29U C64A C80U | ≤ 0.026 |
| G28U G84A | ≤ 0.026 |
| C29U C77G | 0.0454 |
| C29U C77U | ≤ 0.026 |
| A30G G78U | ≤ 0.026 |
| C29U A54U | 0.869 |
| A30C C56A G73C | ≤ 0.026 |
| G28U A62G | ≤ 0.026 |
| A30C G85C | ≤ 0.026 |
| A30C U58G C64G G85A | ≤ 0.026 |
| G28C A60U U70C | ≤ 0.026 |
| A30G U76A | 0.043 |
| A30G U76G | ≤ 0.026 |
| G28U G66A C68G U71G | ≤ 0.026 |
| G28C A31G C77A | ≤ 0.026 |
| C29G A54C C72G | ≤ 0.026 |
| G28U U58A U70A | ≤ 0.026 |
| C29G U71G | ≤ 0.026 |
| C29U U57A U63G | ≤ 0.026 |
| C29U A30C | 0.196 |
| C29A U58C A60C A62U | ≤ 0.026 |

| Variant | nonsense suppression |
| --- | --- |
| C29A G32C G86C | ≤ 0.026 |
| C29A A31U U57A U58A A89C | ≤ 0.026 |
| G28C U58G G66C | ≤ 0.026 |
| C29U U35G G61A C64G G84C | ≤ 0.026 |
| A30U C56U A62G G78A | ≤ 0.026 |
| G28C C34A C68G A89U | ≤ 0.026 |
| G28U C56U U57G C75A | ≤ 0.026 |
| C29U C81G | ≤ 0.026 |
| C29A A33G G61C | ≤ 0.026 |
| C29U A33G G59C U71C | ≤ 0.026 |
| G28U G59U | ≤ 0.026 |
| C29U A30U G86A | ≤ 0.026 |
| C29A C64G G73A | ≤ 0.026 |
| A30C C34U C81U C82U | ≤ 0.026 |
| G28U A31G A54G | ≤ 0.026 |
| C29A C75U C80A | ≤ 0.026 |
| A30G C79G | ≤ 0.026 |
| A30G C79U | 0.207 |
| A30C A31U U71C G86A | ≤ 0.026 |
| G28C G61C | 0.386 |
| G28A U76C | 1.09 |
| C29A U63C G85A | ≤ 0.026 |
| G28U U35G G73A A87C | ≤ 0.026 |

— the RNAGym collection of RNA variant scans (doi:10.1101/gad.245936.114)
